Assay results taken from article PMC6919601, “Identification of Plasmodium dipeptidyl aminopeptidase allosteric inhibitors by high throughput screening” (PLoS ONE, 2019).
Screen size: about 110,000 compounds; about 230 (0.21%) showed an effect of 50% or more. The list shows a part of the results.

target: DPAP1 (Plasmodium falciparum, UniProt Q8IIJ9); assay: primary screen, percent inhibition; read by cleavage of a fluorogenic dipeptide substrate; higher = more effect of the substance; parameters: species or system P. falciparum D10 trophozoite lysates; single well
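Note: 30 min substrate incubation versus DMSO and 10 µM JCP410 controls.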

DPAP1, sequence (Q8IIJ9 whole entry, looked up): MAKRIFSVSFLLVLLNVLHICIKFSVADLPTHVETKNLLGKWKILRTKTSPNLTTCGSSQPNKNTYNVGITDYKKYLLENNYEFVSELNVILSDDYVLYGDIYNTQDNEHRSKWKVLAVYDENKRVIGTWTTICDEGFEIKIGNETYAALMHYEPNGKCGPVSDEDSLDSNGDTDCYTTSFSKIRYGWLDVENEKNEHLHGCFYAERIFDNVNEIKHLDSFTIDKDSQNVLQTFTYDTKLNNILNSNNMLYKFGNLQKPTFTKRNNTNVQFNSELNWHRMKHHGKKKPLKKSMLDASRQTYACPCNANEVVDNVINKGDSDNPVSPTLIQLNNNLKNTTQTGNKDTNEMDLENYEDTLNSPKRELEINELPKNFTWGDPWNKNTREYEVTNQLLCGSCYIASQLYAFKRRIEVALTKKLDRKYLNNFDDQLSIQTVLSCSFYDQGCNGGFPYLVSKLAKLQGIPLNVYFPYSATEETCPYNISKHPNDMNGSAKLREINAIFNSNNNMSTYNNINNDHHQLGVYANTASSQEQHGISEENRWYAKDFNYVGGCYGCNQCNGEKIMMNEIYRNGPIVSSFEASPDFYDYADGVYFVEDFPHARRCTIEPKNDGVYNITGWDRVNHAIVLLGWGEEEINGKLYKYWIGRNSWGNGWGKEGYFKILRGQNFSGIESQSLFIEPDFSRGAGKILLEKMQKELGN

Question: For `Cc1ccc(C(=O)N/C(=C\c2ccco2)C(=O)N2CCOCC2)cc1C`, which “% Inhibition @ 10 uM” value is on record?
Answer: The value was 4.09%.

Question: With `CC(C)c1cc(C(C)C)c(S(=O)(=O)Nc2cccc(F)c2)c(C(C)C)c1` as the compound, how does the “% Inhibition @ 10 uM” value read?
Answer: The value was -2.55%.

Question: Which “% Inhibition @ 10 uM” value does the source give for `CCN(Cc1ccccc1)C(=O)c1cnc2ccc(S(=O)(=O)N(C)CCC#N)cc2c1O` here?
Answer: Its value is 3.04%.

Question: For `O=C(Nc1cccc2cccnc12)c1ccc(C(F)(F)F)cc1`, which “% Inhibition @ 10 uM” value is on record?
Answer: Its value is 1.39%.

Question: `CCn1cc(C(=O)Nc2ccccc2C(=O)c2ccccc2)cn1` was tested. Which “% Inhibition @ 10 uM” value did it give?
Answer: The value was -4.18%.

Question: For `Cc1cc(C)n2nc(CNS(=O)(=O)c3ccc(C(C)(C)C)cc3)nc2n1`, which “% Inhibition @ 10 uM” value is on record?
Answer: The value was -5.81%.

Question: With `CCCOc1ccc(C(CC(=O)O)NC(=O)C23CC4CC(CC(C4)C2)C3)cc1` (centres unmarked) as the compound, how does the “% Inhibition @ 10 uM” value read?
Answer: The value was -0.703%.

Question: How did the “% Inhibition @ 10 uM” value turn out when `O=C(Nc1nc(C23CC4CC(CC(C4)C2)C3)cs1)C(c1ccccc1)c1ccccc1` was run?
Answer: The value was 0.962%.

Question: With `COc1ccccc1/N=C1\SC(C(=O)Nc2cccc(Cl)c2)CC(=O)N1C` (centres unmarked) as the compound, how does the “% Inhibition @ 10 uM” value read?
Answer: Its value is -7.69%.

Question: `CCN(CC)CC(C)CNC(=O)c1oc2ccc(S(=O)(=O)N3CC(C)CC(C)C3)cc2c1C` (centres unmarked) was tested. Which “% Inhibition @ 10 uM” value did it give?
Answer: The value was 2.05%.

Question: With `O=C(/C=C/c1cccc(Cl)c1)c1ccccc1` as the compound, how does the “% Inhibition @ 10 uM” value read?
Answer: Its value is -0.519%.

Question: `C=CCc1cc(/C=C2/C(=N)N3OC(C)=CC3=NC2=O)cc(OC)c1OCCOc1ccc(C)cc1` was tested. Which “% Inhibition @ 10 uM” value did it give?
Answer: Its value is 0.317%.

Question: Which “% Inhibition @ 10 uM” value does the source give for `CCCCN(C)CCNC(=O)CN1N=C(c2ccccc2)CCC1=O` here?
Answer: The value was 2.18%.

Question: With `O=C1CCSc2ccc(Cl)cc21` as the compound, how does the “% Inhibition @ 10 uM” value read?
Answer: The value was -0.256%.

Question: How did the “% Inhibition @ 10 uM” value turn out when `Cc1nc2cc(-c3cccc(F)c3)nn2c(C)c1CCC(=O)NCCCOC(C)C` was run?
Answer: The value was -4.1%.

Question: `CCCCN(Cc1cc2cc(OC)ccc2nc1O)S(=O)(=O)c1ccccc1` was tested. Which “% Inhibition @ 10 uM” value did it give?
Answer: Its value is 2.62%.

Question: Which “% Inhibition @ 10 uM” value does the source give for `Cn1c(=O)c2c(-c3ccccc3)n3c4ccccc4nc(C(F)(F)F)c3c2n(C)c1=O` here?
Answer: Its value is 0.315%.

Question: `CCN1CCN(C(=O)C2CCN(c3nnc(C)c4c(C)n(-c5ccc(Cl)cc5)nc34)CC2)CC1` was tested. Which “% Inhibition @ 10 uM” value did it give?
Answer: Its value is -1.41%.

Question: `COc1ccccc1C(=O)CC1(O)C(=O)Nc2ccccc21` (centres unmarked) was tested. Which “% Inhibition @ 10 uM” value did it give?
Answer: The value was 0.161%.

Question: For `CC(C)CC(NC(=O)/C(=C/c1ccco1)NC(=O)c1ccc(Br)o1)C(=O)O` (centres unmarked), which “% Inhibition @ 10 uM” value is on record?
Answer: The value was -4.74%.

Question: How did the “% Inhibition @ 10 uM” value turn out when `COc1ccccc1CNC(=O)c1cc(-c2cccnc2)nc2ccccc12` was run?
Answer: Its value is -4.06%.

Question: With `COc1cccc(C(=O)Nc2ccccc2C(C)C)c1` as the compound, how does the “% Inhibition @ 10 uM” value read?
Answer: The value was -2.22%.

Question: How did the “% Inhibition @ 10 uM” value turn out when `Cc1cccc(C(=O)NCCCN(C)C)c1` was run?
Answer: Its value is -0.0505%.

Question: For `COc1ccc(C(=O)Nc2c(C)cccc2C(C)C)c(OC)c1`, which “% Inhibition @ 10 uM” value is on record?
Answer: The value was 3.27%.

Question: How did the “% Inhibition @ 10 uM” value turn out when `O=C(O)c1ccc(Nc2nc3c(s2)CCCC3)cc1` was run?
Answer: Its value is -6.27%.

Question: For `COc1ccc(S(=O)(=O)N2CCCc3ccccc32)cc1`, which “% Inhibition @ 10 uM” value is on record?
Answer: Its value is -2.6%.

Question: For `O=C1CC(NCC(O)c2ccccc2)C(=O)N1c1ccc(Cl)cc1` (centres unmarked), which “% Inhibition @ 10 uM” value is on record?
Answer: The value was -1.82%.

Question: For `CC(C)(O)C#Cc1ccc(C(=O)N2CCN(c3ccccn3)CC2)cc1`, which “% Inhibition @ 10 uM” value is on record?
Answer: Its value is -4.93%.

Question: How did the “% Inhibition @ 10 uM” value turn out when `COc1cc(OC)cc(C2=N/C(=C\C(Cl)=C\c3ccccc3)C(=O)O2)c1` was run?
Answer: Its value is -5.79%.

Question: For `CCOc1ccc(Oc2cc(C)nc(SC)n2)nn1`, which “% Inhibition @ 10 uM” value is on record?
Answer: Its value is 3.93%.

Question: For `CCC(C)NC(=S)Nc1ncccc1C(=O)OC` (centres unmarked), which “% Inhibition @ 10 uM” value is on record?
Answer: The value was 1.07%.

Question: Which “% Inhibition @ 10 uM” value does the source give for `Cc1ccc(N(CC(=O)N2CCN(c3ccccc3)CC2)S(=O)(=O)c2ccccc2)c(C)c1` here?
Answer: Its value is -4.13%.

Question: Which “% Inhibition @ 10 uM” value does the source give for `C1CCC2(C1)OCC1(CO2)COC2(CCCC2)OC1` here?
Answer: The value was 4.49%.

Question: How did the “% Inhibition @ 10 uM” value turn out when `CCCOc1ccc(CNC(=O)CCC(=O)n2ncc3cc(C)ccc32)cc1` was run?
Answer: Its value is 3.84%.

Question: Which “% Inhibition @ 10 uM” value does the source give for `Nc1c2c(nn1-c1ccccc1)-c1ccccc1CC21CCCC1` here?
Answer: Its value is 1.4%.

Question: `O=C(NC1CCC(NC(=O)c2ccc(F)cc2)CC1)c1ccc(F)cc1` (centres unmarked) was tested. Which “% Inhibition @ 10 uM” value did it give?
Answer: Its value is 0.528%.

Question: For `CCN(CC)c1ccc(NC(=O)c2ccccc2C(=O)O)cc1`, which “% Inhibition @ 10 uM” value is on record?
Answer: Its value is -7.76%.

Question: For `Nc1c(C(=O)Nc2ccc(F)c(F)c2)sc2nc(-c3ccc4c(c3)OCO4)ccc12`, which “% Inhibition @ 10 uM” value is on record?
Answer: Its value is -1.6%.

Question: With `CC(C)c1ccc(CN2CCN(c3ccccn3)CC2)cc1` as the compound, how does the “% Inhibition @ 10 uM” value read?
Answer: The value was 3.25%.

Question: How did the “% Inhibition @ 10 uM” value turn out when `COc1ccc(Cn2c(C(=O)O)c(CNCC(C)c3ccccc3)c3ccccc32)cc1` (centres unmarked) was run?
Answer: Its value is -1.97%.

Question: `COc1cc(NC(=O)c2ccccc2Cl)c2ncccc2c1` was tested. Which “% Inhibition @ 10 uM” value did it give?
Answer: The value was -1.28%.

Question: `CC(C)C(O)(CC#CCN1CCCC1)c1ccccc1` (centres unmarked) was tested. Which “% Inhibition @ 10 uM” value did it give?
Answer: Its value is -0.902%.

Question: `O=C(O)CCn1ncc2ccccc21` was tested. Which “% Inhibition @ 10 uM” value did it give?
Answer: Its value is 3.44%.

Question: For `O=C(Cn1nc(-c2ccccc2)ccc1=O)NC1CCCCCC1`, which “% Inhibition @ 10 uM” value is on record?
Answer: Its value is -2.99%.

Question: With `O=C(NCc1ccccc1)C(Cc1ccccc1)N1C(=O)c2ccccc2C1=O` (centres unmarked) as the compound, how does the “% Inhibition @ 10 uM” value read?
Answer: The value was -0.369%.

Question: With `O=[N+]([O-])c1ccc(Cl)c(CN2CCC(O)CC2)c1` as the compound, how does the “% Inhibition @ 10 uM” value read?
Answer: Its value is -1.77%.

Question: `C=CCN1C(=O)C(O)=C(C(=O)c2ccc(OC)cc2)C1c1ccc(F)cc1` (centres unmarked) was tested. Which “% Inhibition @ 10 uM” value did it give?
Answer: The value was -3.45%.

Question: How did the “% Inhibition @ 10 uM” value turn out when `CCCn1c2ccccc2c2cnn(CC(=O)NCCCN(CC)Cc3ccccc3)c(=O)c21` was run?
Answer: The value was 2.13%.

Question: Which “% Inhibition @ 10 uM” value does the source give for `O=C(ON=C1C=CC(=NOC(=O)c2ccco2)C=C1)c1ccccc1` here?
Answer: The value was 8.01%.

Question: `O=C(CN(Cc1ccc(Cl)cc1)S(=O)(=O)c1ccccc1)Nc1ccc2c(c1)OCCO2` was tested. Which “% Inhibition @ 10 uM” value did it give?
Answer: Its value is 7.17%.
